{"source": "PubChem BioAssay AID360", "about": "(National Center for Advancing Translational Sciences (NCATS), 2006)", "note": "About 550 (1.1%) of roughly 48,000 compounds were called active. Another 4% or so got no clear call; they are omitted. Rule as the data show it: active = potency below about 15 µM; inconclusive = mostly about 16 µM to 33 µM; inactive = weaker than that. The list shows a part of the results. Potency is read from the fitted curve at half-maximal effect.", "data": [{"target": "Lysosomal acid glucosylceramidase (Homo sapiens) (UniProt P04062)", "sequence (P04062 whole entry, looked up)": "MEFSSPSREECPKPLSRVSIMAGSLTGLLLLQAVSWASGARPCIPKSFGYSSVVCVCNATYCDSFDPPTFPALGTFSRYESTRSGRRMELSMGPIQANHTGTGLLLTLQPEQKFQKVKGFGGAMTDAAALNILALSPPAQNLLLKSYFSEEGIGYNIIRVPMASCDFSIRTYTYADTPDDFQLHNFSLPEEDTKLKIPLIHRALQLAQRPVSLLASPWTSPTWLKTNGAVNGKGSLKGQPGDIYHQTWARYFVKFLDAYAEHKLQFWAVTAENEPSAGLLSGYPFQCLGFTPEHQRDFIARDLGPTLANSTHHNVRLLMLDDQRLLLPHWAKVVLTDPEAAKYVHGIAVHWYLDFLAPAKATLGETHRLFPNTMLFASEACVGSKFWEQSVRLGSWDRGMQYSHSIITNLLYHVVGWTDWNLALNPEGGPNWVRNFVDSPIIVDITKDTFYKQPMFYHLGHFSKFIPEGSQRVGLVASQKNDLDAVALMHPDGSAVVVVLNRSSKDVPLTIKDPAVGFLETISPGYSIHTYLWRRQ", "assay": "Glucocerebrosidase;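 also: the screen sought inhibitors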", "details": "purified enzyme, resorufin glucoside fluorescence (screen aimed at inhibitors), 20 min", "in_short": "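Wild-type enzyme at 0.2 nM final in 50mM citric acid/KH2PO4, 10mM sodium taurocholate, 0.01% tween-20, pH 5.9, with resorufin beta-D-glucopyranoside at 30 uM final. Compounds titrated, 20 min at RT, red fluorescence read; AC50 from titration.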", "values": [{"smiles": "Cc1ccc(S(=O)(=O)N2CC3(C)CN(S(=O)(=O)c4ccc(C)cc4)CC(C)(C2)C3O)cc1", "note": "(configuration not stated)", "Potency": "inactive: > 76.9 µM"}, {"smiles": "O=C1c2ccccc2S(=O)(=O)N1CCOc1ccccc1", "Potency": "inactive: > 76.9 µM"}, {"smiles": "COc1ccc(CNC(=O)c2cc(-c3ccccc3OC)on2)cc1", "Potency": "active: 11 µM"}, {"smiles": "Cn1nnc2cc(C(=O)NCCC3=CCCCC3)ccc21", "Potency": "inactive"}, {"smiles": "O=C(c1ccc2c(c1)OCO2)N(c1ccc(F)cc1)C1C=CS(=O)(=O)C1", "note": "(configuration not stated)", "Potency": "inactive: > 76.9 µM"}, {"smiles": "C/C=C/c1ccc(OCCSc2nc(C)cc(=O)[nH]2)c(OC)c1", "Potency": "inactive: > 76.9 µM"}, {"smiles": "Cc1oc(-c2ccccc2F)nc1CN1CCC(C(=O)NCc2ccco2)CC1", "Potency": "inactive"}, {"smiles": "Fc1ccccc1CSc1nnnn1-c1ccc2c(c1)OCO2", "Potency": "inactive: > 76.9 µM"}, {"smiles": "CCc1ccccc1NC(=O)c1nnn(CC(=O)Nc2cccc(C)c2C)c1N", "Potency": "inactive: > 76.9 µM"}, {"smiles": "COc1ccc(-c2cc(-n3c(C(F)(F)F)nc4ccccc43)n(CCC#N)n2)cc1", "Potency": "inactive: > 76.9 µM"}, {"smiles": "COCCN(C(=O)Nc1ccc(OC)cc1OC)C1CCN(C(C)C)CC1", "Potency": "inactive"}, {"smiles": "O=C(CSc1nnc2ccccn12)NCCN1C(=O)CSC1=O", "Potency": "inactive: > 76.9 µM"}, {"smiles": "CCOC(=O)Cn1c(N2CCCCCC2)nc2c1c(=O)[nH]c(=O)n2C", "Potency": "inactive: > 76.9 µM"}, {"smiles": "C/C=C/c1ccc(Oc2nnnn2-c2ccc(C(N)=O)cc2)c(OC)c1", "Potency": "inactive: > 76.9 µM"}, {"smiles": "Cn1c(C(=O)N2CCN(c3ccc(Cl)cc3)CC2)cc2c(=O)[nH]c3ccccc3c21", "Potency": "inactive: > 76.9 µM"}, {"smiles": "Cc1ccc(N(CC(=O)NCc2cccs2)S(=O)(=O)c2cccs2)cc1", "Potency": "inactive: > 76.9 µM"}, {"smiles": "CCCc1cc(C(N)=O)c(NC(C)=O)s1", "Potency": "inactive: > 76.9 µM"}, {"smiles": "CCc1sc(C(=O)N2CCN(S(C)(=O)=O)CC2)cc1Br", "Potency": "inactive: > 76.9 µM"}, {"smiles": "Cn1c(NCc2ccccc2O)nc2ccccc21", "Potency": "inactive: > 76.9 µM"}, {"smiles": "O=C(NCc1ccco1)c1cc(-c2ccccc2)c(N2CCOCC2)s1", "Potency": "inactive: > 76.9 µM"}, {"smiles": "CCN1C(=O)c2cccc3c(NS(=O)(=O)c4ccc(NC(C)=O)cc4)ccc1c23", "Potency": "inactive: > 76.9 µM"}, {"smiles": "Cc1ccc(C(O)CN2C3=NCCN3c3ccccc32)cc1", "note": "(configuration not stated)", "Potency": "inactive: > 76.9 µM"}, {"smiles": "CC(NC(=O)c1ccccc1Cl)C1COc2ccccc2O1", "note": "(configuration not stated)", "Potency": "inactive: > 76.9 µM"}, {"smiles": "CC(=O)N1CCN(c2ccc(N=Cc3c(O)n(Cc4ccccc4)c(=O)[nH]c3=O)cc2)CC1", "Potency": "inactive: > 76.9 µM"}, {"smiles": "COCCn1c(SCC(=O)c2cccc(OC)c2)nnc1-c1ccco1", "Potency": "inactive: > 76.9 µM"}, {"smiles": "Cc1cc(NC(=O)CSc2nnc(C3CC3)n2N)no1", "Potency": "inactive: > 76.9 µM"}, {"smiles": "COc1ccccc1NC(=O)CSc1nccc(=O)[nH]1", "Potency": "inactive: > 76.9 µM"}, {"smiles": "CCN(CC)c1ccc2c(c1)OC(N)=C(C#N)C2c1cccnc1", "note": "(configuration not stated)", "Potency": "inactive: > 76.9 µM"}, {"smiles": "CC(=O)OCCCCON1C(=O)c2ccccc2C1=O", "Potency": "inactive: > 76.9 µM"}, {"smiles": "COc1cc2c(cc1OC)-c1nnnn1C(C)(C)C2", "Potency": "inactive: > 76.9 µM"}, {"smiles": "CC1CCCCN1C(=O)Cn1cc(C(=O)c2ccco2)c2ccccc21", "note": "(configuration not stated)", "Potency": "inactive: > 76.9 µM"}, {"smiles": "CCCN1C(=O)c2ccc(C(=O)NCc3ccco3)cc2C1=O", "Potency": "inactive: > 76.9 µM"}, {"smiles": "COc1ccccc1-c1cc(C(F)(F)F)nc(N2CCOCC2)n1", "Potency": "inactive: > 76.9 µM"}, {"smiles": "O=C(CN1C2CCC1CC(NC(=O)NC1CCCCC1)C2)NC1CC1", "note": "(configuration not stated)", "Potency": "inactive: > 76.9 µM"}, {"smiles": "Cc1ccc(/C(O)=C2\\C(=O)C(=O)N(CC(C)O)C2c2cccc(F)c2)cc1", "note": "(configuration not stated)", "Potency": "inactive: > 76.9 µM"}, {"smiles": "Cn1c(=O)c2c(ncn2CC(=O)Nc2nnc(Cc3ccccc3)s2)n(C)c1=O", "Potency": "inactive: > 76.9 µM"}, {"smiles": "CCN(CC)c1ccc(C(=O)OCC(=O)N2CCN(c3ccccc3)CC2)cc1", "Potency": "inactive: > 76.9 µM"}, {"smiles": "Cc1cc(Nc2ccccc2)n(C(=O)c2ccc(N)cc2)n1", "Potency": "inactive: > 76.9 µM"}, {"smiles": "Cn1cc(S(=O)(=O)CC(=O)Nc2ccc3c(c2)OCCO3)c2ccccc21", "Potency": "inactive: > 76.9 µM"}, {"smiles": "CC1Cc2ccccc2N1C(=O)CCNS(=O)(=O)c1ccc2c(c1)CCC(=O)N2", "note": "(configuration not stated)", "Potency": "inactive"}, {"smiles": "O=C(CSc1nnc(-c2ccco2)o1)N1CCOCC1", "Potency": "inactive: > 76.9 µM"}, {"smiles": "CN(C)S(=O)(=O)c1cccc(C(=O)Nc2cccnc2)c1", "Potency": "inactive: > 76.9 µM"}, {"smiles": "COc1ccc2nc(NC(=O)c3ccc(-n4nc(C)cc4C)cc3)sc2c1", "Potency": "inactive: > 76.9 µM"}, {"smiles": "O=C(COc1ncnc2sccc12)N1CCc2ccccc2C1", "Potency": "inactive: > 76.9 µM"}, {"smiles": "CN(C)c1ccc(C(=O)OCC(=O)NC2CCCCC2)cc1", "Potency": "inactive: > 76.9 µM"}, {"smiles": "Cc1nc2nc[nH]n2c(=O)c1NC(=O)c1cccc(OCC(C)C)c1", "Potency": "inactive: > 76.9 µM"}, {"smiles": "COc1cc(OC)cc(C(=O)Nn2c(C)nc3ccccc3c2=O)c1", "Potency": "inactive: > 76.9 µM"}, {"smiles": "CCN(CCNC(=O)c1cccc(N2CCCC2=O)c1)c1ccccc1", "Potency": "inactive: > 76.9 µM"}, {"smiles": "Cc1cc(NC(=O)c2cc(-c3ccncc3)nc3c(C)cccc23)no1", "Potency": "inactive: > 76.9 µM"}, {"smiles": "COc1ccc(S(=O)(=O)NCc2ccccn2)cc1Cl", "Potency": "inactive: > 76.9 µM"}, {"smiles": "COCCN(CCOC)c1ncnc2c1cnn2-c1ccc(Cl)cc1", "Potency": "inactive: > 76.9 µM"}, {"smiles": "Cc1nnc2n(CCc3ccccc3)c(=O)c3c4c(sc3n12)CCCC4", "Potency": "inactive: > 76.9 µM"}, {"smiles": "COc1ccc(NC(=O)NCc2cccn2C)c(OC)c1", "Potency": "inactive: > 76.9 µM"}, {"smiles": "COc1ccc(CNC(=O)C2C3C=CC4(CN(Cc5cccnc5)C(=O)C24)O3)cc1", "note": "(configuration not stated)", "Potency": "inactive: > 76.9 µM"}, {"smiles": "Cc1csc(NC(=O)c2nc(-c3ccccc3)n(-c3ccccc3)n2)n1", "Potency": "inactive: > 76.9 µM"}, {"smiles": "Cn1c(-c2ccc(F)cc2)cnc1SCC(=O)NCc1ccco1", "Potency": "inactive: > 76.9 µM"}, {"smiles": "CCOC(=O)c1cnn2c(N)c(C#N)nnc12", "Potency": "inactive: > 76.9 µM"}, {"smiles": "Cc1nc2nc(COc3ccccc3)[nH]n2c(=O)c1Cl", "Potency": "inactive: > 76.9 µM"}, {"smiles": "COc1ccc(OCCOC(=O)c2cccc(-n3cnnn3)c2)cc1", "Potency": "inactive: > 76.9 µM"}, {"smiles": "Cn1c(=O)c2ncn(CC(=O)Nc3cc(C(F)(F)F)ccc3N3CCOCC3)c2n(C)c1=O", "Potency": "inactive: > 76.9 µM"}, {"smiles": "CCOC(=O)c1cc2sccc2n1Cc1ccccc1", "Potency": "inactive: > 76.9 µM"}, {"smiles": "O=C1OC(c2ccccc2)=C/C1=C\\N1CCOCC1", "Potency": "inactive: > 76.9 µM"}, {"smiles": "Cc1nn(Cc2ccccc2)c2sc(C(=O)NCc3cccnc3)cc12", "Potency": "inactive: > 76.9 µM"}, {"smiles": "Cc1cccc(NC(=O)CSc2nnc(-c3ccccc3C)o2)c1", "Potency": "inactive: > 76.9 µM"}, {"smiles": "CN1C(=O)C2CN(CCc3ccccc3)CNC2N(C)C1=O", "note": "(configuration not stated)", "Potency": "inactive: > 76.9 µM"}, {"smiles": "CCOc1ccc(OCC)c(NS(=O)(=O)c2cccc3nsnc23)c1", "Potency": "inactive: > 76.9 µM"}, {"smiles": "COc1ccc(C)cc1NC(=O)C1CC(=O)N(Cc2ccco2)C1", "note": "(configuration not stated)", "Potency": "inactive: > 76.9 µM"}, {"smiles": "COc1ccc(C(CC(=O)O)NC(=O)COc2ccccc2)cc1OC", "note": "(configuration not stated)", "Potency": "inactive: > 76.9 µM"}, {"smiles": "CC(=O)Nc1cccc(Oc2cc(C#N)c(C#N)cc2N2CCCCCC2)c1", "Potency": "inactive"}, {"smiles": "O=C(c1ccc(-c2ccccc2)cc1)N1CCC(C(=O)N2CCCC2)CC1", "Potency": "inactive: > 76.9 µM"}, {"smiles": "COc1ccc(NC(=O)CCN2CCCCCC2)c(OC)c1", "Potency": "inactive: > 76.9 µM"}, {"smiles": "O=S(=O)(c1ccc(OCC(O)CN2CCN(c3ccccc3O)CC2)cc1)N1CCOCC1", "note": "(configuration not stated)", "Potency": "inactive: > 76.9 µM"}, {"smiles": "CCC1Oc2ccc(C)cc2N(CC(=O)NCCC2=CCCCC2)C1=O", "note": "(configuration not stated)", "Potency": "inactive: > 76.9 µM"}, {"smiles": "CC(C)(C)C1CCc2[nH]nc(C(=O)O)c2C1", "note": "(configuration not stated)", "Potency": "inactive: > 76.9 µM"}, {"smiles": "CSC1=NC2(CCCCC2)C2=C(CCCC2)N1", "Potency": "inactive: > 76.9 µM"}, {"smiles": "Cc1ccc(N2CC(C(=O)Nc3nnc(C(C)C)s3)CC2=O)cc1", "note": "(configuration not stated)", "Potency": "inactive: > 76.9 µM"}, {"smiles": "COc1ccc2sc(NC(=O)CC(C)C)nc2c1", "Potency": "inactive: > 76.9 µM"}, {"smiles": "COCCOC(=O)C1=C(C)Nc2ncnn2C1c1ccc(F)cc1", "note": "(configuration not stated)", "Potency": "inactive: > 76.9 µM"}, {"smiles": "O=C(COC(=O)c1cccc(C(=O)OCC(=O)NC2CCCCC2)n1)NC1CCCCC1", "Potency": "inactive: > 76.9 µM"}, {"smiles": "COc1cc(OC)cc(-c2cc3nc4c(c(N5CCN(c6ncccn6)CC5)n3n2)CCCC4)c1", "Potency": "inactive: > 76.9 µM"}, {"smiles": "CCn1c(=O)cc(SCC(=O)N2CCN(c3ccccn3)CC2)c2ccccc21", "Potency": "inactive: > 76.9 µM"}, {"smiles": "COc1cc(C(=O)O)cc(Br)c1OC1CCCC1", "Potency": "inactive: > 76.9 µM"}, {"smiles": "O=C(C1CCCCC1)N1CCCC(c2nc(-c3ccc(F)cc3)no2)C1", "note": "(configuration not stated)", "Potency": "inactive: > 76.9 µM"}, {"smiles": "c1ccc2[nH]c(CN3CCN(c4ncnc5c4oc4ccccc45)CC3)nc2c1", "Potency": "inactive: > 76.9 µM"}, {"smiles": "CCN(CC)c1ccc(C2CC(=O)Nc3cc(OC)c(OC)cc32)cc1", "note": "(configuration not stated)", "Potency": "inactive: > 76.9 µM"}, {"smiles": "COc1cccc(C=Nc2cccnc2)c1O", "Potency": "inactive: > 76.9 µM"}, {"smiles": "COCCCNC(=O)Cn1nnc(-c2ccc(NC(=O)c3ccccc3OC)cc2)n1", "Potency": "inactive: > 76.9 µM"}, {"smiles": "Cn1nc(-c2ccc(Cl)cc2)c2cc(C(=O)N3CCC(N4CCCCC4)CC3)sc21", "Potency": "inactive: > 76.9 µM"}, {"smiles": "O=C1C2C3c4ccccc4C(c4ccccc43)C2C(=O)N1CN1CCOCC1", "note": "(configuration not stated)", "Potency": "inactive: > 76.9 µM"}, {"smiles": "Cn1c(=O)[nH]c(=O)c2c1nc1n2CCCN1CCc1ccccc1", "Potency": "inactive: > 76.9 µM"}, {"smiles": "Cc1onc(-c2ccccc2Cl)c1-c1nc(-c2ccccn2)no1", "Potency": "inactive: > 76.9 µM"}, {"smiles": "CCc1noc(C)c1C(=O)Nc1sc(C(=O)N(C)C)c(C)c1C(=O)OC", "Potency": "inactive: > 76.9 µM"}]}]}
